Measurements taken from patent publication US20140105889A1 (published 2014).
One block for each binder: values may come before it.

Experiments:
mouse FcγRIV = biological target: T1, mouse FcγRIV (mouse); test: SPR (Biacore), antibody captured on Protein L, mouse FcγR as analyte, pH 7.4, 25 C
T1 construct: Bought soluble receptor; also called mFcgRIV; mFcgR IV

[1] = biological target: T2, human FcRn (soluble human FcRn complexed with beta2-microglobulin) (human, UniProt P61769 partial chain); test: SPR (Biacore), pH 7.0, 25 C, antibody captured by Protein L, human FcRn as analyte
T2 construct: also called hFcRn

Sequence of mouse FcγRIV (A0A0B4J1G0 21-203): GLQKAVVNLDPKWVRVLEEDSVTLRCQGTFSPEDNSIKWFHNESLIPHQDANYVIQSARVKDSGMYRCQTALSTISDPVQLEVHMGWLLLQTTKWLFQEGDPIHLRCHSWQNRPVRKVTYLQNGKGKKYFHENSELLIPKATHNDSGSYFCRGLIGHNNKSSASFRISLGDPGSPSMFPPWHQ

BINDING AMOUNT(RU) (mouse FcγRIV): 8.1 RU
B1: antibody with VH3-IgG1-F760 heavy chain and L(WT)-CK light chain (antibody)
heavy: QVQLQESGPGLVKPSETLSLTCAVSGHSISHDHAWSWVRQPPGEGLEWIGFISYSGITNYNPSLQGRVTISRDNSKNTLYLQMNSLRAEDTAVYYCARSLARTTAMDYWGEGTLVTVSS[here human IgG1 constant region with L235R S239K (EU numbers) without letters]
light: DIQMTQSPSSLSASVGDRVTITCRASQDISSYLNWYQQKPGKAPKLLIYYTSRLHSGVPSRFSGSGSGTDFTFTISSLQPEDIATYYCQQGNTLPYTFGQGTKVEIKRTVAAPSVFIFPPSDEQLKSGTASVVCLLNNFYPREAKVQWKVDNALQSGNSQESVTEQDSKDSTYSLSSTLTLSKADYEKHKVYACEVTHQGLSSPVTKSFNRGEC
notes: copies: 2 + 2

Kd [1]: 1000 nM
B2: IgG1-F1033 (antibody, name in EU numbering)
heavy: QVQLQESGPGLVKPSETLSLTCAVSGHSISHDHAWSWVRQPPGEGLEWIGFISYSGITNYNPSLQGRVTISRDNSKNTLYLQMNSLRAEDTAVYYCARSLARTTAMDYWGEGTLVTVSS[here human IgG1 constant region with P238D N434W (EU numbers) without letters]
light: B1 light
